Paper PMC4336329 (PLoS ONE, 2015)
Among all 310,000 compounds or so, about 2,200 (0.71%) showed an effect of 50% or more. Effects have a minus sign here. This is one part of the list.

The compounds below were run against human ether-à-go-go-related gene (hERG) potassium channel (human, UniProt Q12809) (assay: primary screen, population patch clamp on CHO cells stably expressing hERG).
human ether-à-go-go-related gene (hERG) potassium channel, sequence (Q12809 whole entry, looked up): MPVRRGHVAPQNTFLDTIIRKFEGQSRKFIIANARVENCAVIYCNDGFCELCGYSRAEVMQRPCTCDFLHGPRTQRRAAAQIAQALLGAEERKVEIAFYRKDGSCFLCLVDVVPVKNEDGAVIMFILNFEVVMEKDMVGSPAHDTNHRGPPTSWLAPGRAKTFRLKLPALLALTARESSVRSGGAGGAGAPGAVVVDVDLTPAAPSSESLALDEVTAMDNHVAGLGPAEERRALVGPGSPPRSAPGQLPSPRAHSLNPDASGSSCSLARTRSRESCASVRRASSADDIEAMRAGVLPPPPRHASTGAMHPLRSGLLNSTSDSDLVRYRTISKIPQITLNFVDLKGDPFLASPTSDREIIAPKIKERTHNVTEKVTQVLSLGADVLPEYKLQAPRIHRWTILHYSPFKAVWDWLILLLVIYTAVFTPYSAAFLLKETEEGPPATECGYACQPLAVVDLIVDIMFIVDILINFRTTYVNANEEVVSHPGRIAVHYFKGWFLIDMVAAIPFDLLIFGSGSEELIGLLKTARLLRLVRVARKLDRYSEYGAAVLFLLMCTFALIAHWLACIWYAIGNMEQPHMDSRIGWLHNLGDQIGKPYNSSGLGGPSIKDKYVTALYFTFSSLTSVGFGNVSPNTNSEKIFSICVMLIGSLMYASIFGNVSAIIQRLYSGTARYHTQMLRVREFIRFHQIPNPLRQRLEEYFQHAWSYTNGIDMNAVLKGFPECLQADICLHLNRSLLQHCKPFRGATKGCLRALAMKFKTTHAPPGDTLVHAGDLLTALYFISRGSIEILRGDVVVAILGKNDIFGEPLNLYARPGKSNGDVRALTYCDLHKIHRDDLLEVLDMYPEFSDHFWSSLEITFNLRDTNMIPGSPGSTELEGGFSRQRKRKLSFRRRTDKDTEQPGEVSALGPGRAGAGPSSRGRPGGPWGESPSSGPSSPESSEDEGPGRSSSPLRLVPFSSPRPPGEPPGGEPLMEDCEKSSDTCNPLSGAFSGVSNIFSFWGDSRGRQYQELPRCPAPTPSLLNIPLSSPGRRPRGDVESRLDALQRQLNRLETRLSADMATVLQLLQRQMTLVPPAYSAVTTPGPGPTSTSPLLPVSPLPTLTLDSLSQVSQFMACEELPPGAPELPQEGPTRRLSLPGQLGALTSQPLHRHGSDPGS

| Compound | hERG current change (%, negative = inhibition) at 1uM [%] |
| --- | --- |
| Cc1cccc(-n2nnc3c(=O)n(CC(=O)Nc4cc(C)on4)cnc32)c1 | 11.9 |
| CC(C)[C@H](NC(=O)NCc1cccs1)C(=O)O | 18.5 |
| COC(=O)c1ccc(NC(=O)Cn2nc(C)cc2C)cc1 | 17.4 |
| CCc1ccc(NC(=O)CSc2nncn2-c2cccnc2)cc1 | 12.3 |
| CCCCn1c(N)c(N(CCC(C)C)C(=O)C2CCN(C(=O)c3ccccc3C)CC2)c(=O)[nH]c1=O | 6.03 |
| O=C(CCCc1ccccc1)Nc1cccnc1 | -1.21 |
| CC(=O)Nc1ccc(CN2CCN(c3cccc(C(F)(F)F)c3)CC2)cc1 | -19.1 |
| CC(C)(C)c1cc(-c2ccccc2)no1 | 6.58 |
| COc1ccc(CC(=O)Nc2ccc(S(=O)(=O)N3CCC(C)CC3)cc2)c(OC)c1 | 10.6 |
| O=S(=O)(NCc1cccnc1)c1ccc(Cl)c(Cl)c1Cl | -1.91 |
| O=C(O)/C=C/c1ccc(Oc2ncccn2)cc1 | 6.9 |
| CC(C)CCNC(=O)c1ccc2c(c1)ncn2C1CCCCC1 | -15.6 |
| O=C(Nc1c(F)cccc1F)c1ccc(-n2cncn2)nc1 | 8.51 |
| C/C(=N\Nc1nc(-c2ccccc2)cs1)c1cccs1 | 12.7 |
| O=C(N/N=C/c1cc([N+](=O)[O-])ccc1O)c1cccc2ccccc12 | 16.9 |
| O=C1Nc2c(c(=O)[nH]c(=O)n2-c2ccccc2F)C(C(F)(F)F)(C(F)(F)F)N1 | 16.4 |
| Cc1cc(OC(C)C(=O)NCCCN2CCOCC2)c2c(C)cc(=O)oc2c1 (stereo not shown) | 9.56 |
| COc1ccc(-c2noc(CSc3ccccc3)n2)cc1OC | 8.02 |
| CCCCN(C(=O)COC(=O)c1nc2nc(C)cc(C)n2n1)C1CCS(=O)(=O)C1 (stereo not shown) | 2.88 |
| N#CC1(NC(=O)COC(=O)c2cc([N+](=O)[O-])ccc2N2CCOCC2)CCCCC1 | -23.5 |
| COc1ccc(OC)c(NC(=O)C(=O)/C=C(\O)c2cc(OC)ccc2OC)c1 | -13.2 |
| Cc1nc(NC(=O)c2ccccc2)sc1-c1csc(Nc2ccc(F)cc2)n1 | 19.2 |
| COc1ccc(S(=O)(=O)NCc2ccc(C)cc2)cc1 | 0.216 |
| O=C(COc1ccc2ccc(=O)oc2c1)NC(Cc1ccc(Cl)cc1)C(=O)O (stereo not shown) | 9.25 |
| Cc1cc(CN2CCCC(N3CCc4ccccc4C3)C2)cc(C)c1O (stereo not shown) | -0.377 |
| CCCOC(=O)c1ccc2c(c1)C(=O)N(c1ccccc1)C2=O | 11.8 |
| CS(=O)(=O)N1CCN(CC(=O)NC2CCCC2)CC1 | 1.26 |
| CC(C)c1ccc(NC(=O)NN2CCOCC2)cc1 | 6.76 |

| Compound | hERG current change (%, negative = inhibition) at 1uM [%] |
| --- | --- |
| COc1ccc(NC(=O)c2ccc3c(SCC(=O)O)c4c(nc3c2)CCCC4)c(OC)c1 | 10.4 |
| Cc1ccc(CNC(=O)C23CN(Cc4ccccc4)CC2C(c2ccc([N+](=O)[O-])cc2)=NO3)o1 (stereo not shown) | -17.4 |
| CN1CCN(c2ccc(NC(=O)c3ccc4c(c3)OCCO4)cc2)CC1 | -3.32 |
| COc1cccc(CNC(=O)C2CCN(c3nn4c(=O)cc(C)nc4s3)CC2)c1 | 15.8 |
| COc1ccc(/C=C2\SC(=O)N(CCNC(=O)Cc3coc4cc(C)ccc34)C2=O)cc1OC | 9.96 |
| CCOc1ccc(N(C(=O)c2snc(C(N)=O)c2N)C(C(=O)NCC2CCCO2)c2ccco2)cc1 (stereo not shown) | 11.4 |
| CCN(CC)CC(O)COC(c1ccccc1)c1ccccc1 (stereo not shown) | -33.2 |
| Cc1[nH]c(=O)[nH]c(=O)c1NC(=O)c1sc2nc3c(C)cccc3cc2c1N | 17.8 |
| COc1cc2c(cc1OC)C(/C(C#N)=N\O)=NC(C)(C)C2 | 10.3 |
| N#C/C(C(=O)NCc1ccccc1)=C1/N=C(NC(=O)c2cccs2)c2ccccc21 | 7.12 |
| COc1ccc(C2C(C(C)=O)=C(O)C(=O)N2CCCn2ccnc2)cc1OC (stereo not shown) | 3.06 |
| O=S(=O)(NCc1cn2ccsc2n1)c1ccc2c(c1)OCCO2 | 9.86 |
| O=C(CN(c1ccc(Cl)c(C(F)(F)F)c1)S(=O)(=O)c1ccccc1)N1CCOCC1 | -0.447 |
| CCOC(=O)N1CCN(C(=O)CCCn2nc(C)c3sc4ccccc4c3c2=O)CC1 | -9.58 |
| COCCN(C(=O)Nc1ccccc1)c1ccccc1C | 12.5 |
| COc1ccccc1CNC(=O)C(=O)NCC1CCCO1 (stereo not shown) | 2.75 |
| CC(C)(C)c1ccc(C(=O)NCC(=O)OCC(=O)Nc2ccc3c(c2)OCCO3)cc1 | 19.1 |
| Cn1cccc1/C=C1\SC(=S)N(NC(=O)c2cccc(Cl)c2)C1=O | 13.2 |
| Cc1nnc2ccc(-c3cccc(NS(=O)(=O)c4ccccc4Cl)c3)nn12 | -1.39 |
| CC(NC(=O)COc1ccc(/C=N/NS(=O)(=O)c2ccccc2)cc1)c1ccccc1 (stereo not shown) | 12.4 |
| C/C(=N\N1C(=O)CSC1=S)c1ccc(Br)cc1 | 1.48 |
| Oc1ccc(/C=N/N(Cc2ccccc2)c2ccccc2)cc1 | 25.8 |
| Cc1ccc(OCC(=O)N/N=C\c2c(C)[nH]n(-c3ccccc3)c2=O)c([N+](=O)[O-])c1 | 11.9 |
| O=C(CSc1ccccc1C(=O)O)c1ccc([N+](=O)[O-])cc1 | 11.1 |
| CCCCn1c(N)c(N(CC(C)C)C(=O)c2cc(-c3ccc(F)cc3)nc3ccccc23)c(=O)[nH]c1=O | 2.37 |
| O=C(NC(=O)c1ccccc1)Nc1ccccn1 | 15.3 |
| Cc1cc(=O)oc2cc(OCC(=O)NCCc3ccccc3)ccc12 | 12.7 |
